# According to the supplement of paper PMC8728848:
# This is one part of the list.
# B1: Banana lectin (Musa acuminata) (protein)
# chain: MNGAIKVGAWGGNGGSAFDMGPAYRIISVKIFSGDVVDGVDVTFTYYGKTETRHYGGSGGTPHEIVLQEGEYLVGMAGEVANYTGAVVLGKLGFSTNKKAYGPFGNTGGTPFSLPIAAGKISGFFGRGGKFLDAIGVYLEPLEHHHHHH
# How the values were obtained:
# Assay in all cases: glycan array binding signal (z-score within array); higher = stronger binding
# Settings in all cases: glycan notation: IUPAC condensed, linker removed; mutation: H84T
# [1] = target: GlcNAc(b1-3)Gal(b1-4)GlcNAc(b1-3)Gal(b1-4)GlcNAc(b1-3)Gal(b1-4)GlcNAc(b1-3)Gal(b1-4)GlcNAc(b1-2)[GlcNAc(b1-3)Gal(b1-4)GlcNAc(b1-3)Gal(b1-4)GlcNAc(b1-3)Gal(b1-4)GlcNAc(b1-3)Gal(b1-4)GlcNAc(b1-6)]Man(a1-6)[GlcNAc(b1-3)Gal(b1-4)GlcNAc(b1-3)Gal(b1-4)GlcNAc(b1-3)Gal(b1-4)GlcNAc(b1-3)Gal(b1-4)GlcNAc(b1-2)Man(a1-3)]Man(b1-4)GlcNAc(b1-4)[Fuc(a1-6)]GlcNAc
# How it was run: (§1)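 Columns mapping to the same glycan were averaged after glycan names were converted to IUPAC-condensed notation. The data come from 3228 arrays in the Consortium for Functional Glycomics database, limited to those with an available protein sequence. Binding is reported as a within-array Z-score averaged across arrays of one protein sequence and across linkers.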
# [2] = target: GlcNAc(b1-3)Gal(b1-4)GlcNAc(b1-3)Gal(b1-4)GlcNAc(b1-3)GalNAc
# How it was run: as §1
# [3] = target: GlcNAc(b1-3)Gal(b1-4)GlcNAc(b1-3)GalNAc
# How it was run: as §1
# [4] = target: GlcNAc(b1-3)Gal(b1-4)GlcNAc(b1-3)[GlcNAc(b1-3)Gal(b1-4)GlcNAc(b1-3)]GalNAc
# How it was run: as §1
# [5] = target: GlcNAc(b1-3)Gal(b1-4)GlcNAc(b1-6)[Gal(b1-3)]GalNAc
# How it was run: as §1
# [6] = target: GlcNAc(b1-3)Gal(b1-4)GlcNAc(b1-6)[GlcNAc(b1-3)Gal(b1-3)]GalNAc
# How it was run: as §1
# [7] = target: GlcNAc(b1-3)Gal(b1-4)GlcNAc(b1-6)[GlcNAc(b1-3)]Gal(b1-4)GlcNAc
# How it was run: as §1
# GlcNAc(b1-3)GalNAc = target: GlcNAc(b1-3)GalNAc
# How it was run: as §1
# GlcNAc(b1-3)Man = target: GlcNAc(b1-3)Man
# How it was run: as §1
# [8] = target: GlcNAc(b1-3)[GlcNAc(b1-4)][GlcNAc(b1-6)]GlcNAc
# How it was run: as §1
# [9] = target: GlcNAc(b1-3)[GlcNAc(b1-6)]Gal(b1-4)GlcNAc
# How it was run: as §1
# [10] = target: GlcNAc(b1-3)[GlcNAc(b1-6)]GalNAc
# How it was run: as §1
# [11] = target: GlcNAc(b1-4)Gal(b1-4)GlcNAc
# How it was run: as §1
# GlcNAc(b1-4)GlcNAc = target: GlcNAc(b1-4)GlcNAc
# How it was run: as §1
# [12] = target: GlcNAc(b1-4)GlcNAc(b1-4)GlcNAc
# How it was run: as §1
# [13] = target: GlcNAc(b1-4)GlcNAc(b1-4)GlcNAc(b1-4)GlcNAc(b1-4)GlcNAc
# How it was run: as §1
# [14] = target: GlcNAc(b1-4)GlcNAc(b1-4)GlcNAc(b1-4)GlcNAc(b1-4)GlcNAc(b1-4)GlcNAc
# How it was run: as §1
# [15] = target: GlcNAc(b1-4)[GlcNAc(b1-6)]GalNAc
# How it was run: as §1
# [16] = target: GlcNAc(b1-6)Gal(b1-4)GlcNAc
# How it was run: as §1
# GlcNAc(b1-6)GalNAc = target: GlcNAc(b1-6)GalNAc
# How it was run: as §1
# [17] = target: GlcNAc6S(b1-3)Gal(b1-4)GlcNAc
# How it was run: as §1
# Kdn(a2-3)Gal(b1-3)GalNAc = target: Kdn(a2-3)Gal(b1-3)GalNAc
# How it was run: as §1
# Kdn(a2-3)Gal(b1-3)GlcNAc = target: Kdn(a2-3)Gal(b1-3)GlcNAc
# How it was run: as §1
# Kdn(a2-3)Gal(b1-4)Glc = target: Kdn(a2-3)Gal(b1-4)Glc
# How it was run: as §1
# Kdn(a2-3)Gal(b1-4)GlcNAc = target: Kdn(a2-3)Gal(b1-4)GlcNAc
# How it was run: as §1
# [18] = target: Kdn(a2-3)Gal(b1-4)[Fuc(a1-3)]GlcNAc
# How it was run: as §1
# Kdn(a2-6)Gal(b1-4)GlcNAc = target: Kdn(a2-6)Gal(b1-4)GlcNAc
# How it was run: as §1
# [19] = target: Man(a1-2)Man(a1-2)Man(a1-3)Man
# How it was run: as §1
# [20] = target: Man(a1-2)Man(a1-2)Man(a1-6)[Man(a1-3)]Man
# How it was run: as §1
# Man(a1-2)Man(a1-3)Man = target: Man(a1-2)Man(a1-3)Man
# How it was run: as §1
# [21] = target: Man(a1-2)Man(a1-3)[Man(a1-2)Man(a1-6)]Man
# How it was run: as §1
# [22] = target: Man(a1-2)Man(a1-3)[Man(a1-2)Man(a1-6)]Man(a1-6)[Man(a1-2)Man(a1-2)Man(a1-3)]Man
# How it was run: as §1
# [23] = target: Man(a1-2)Man(a1-3)[Man(a1-2)Man(a1-6)]Man(a1-6)[Man(a1-2)Man(a1-2)Man(a1-3)]Man(b1-4)GlcNAc(b1-4)GlcNAc
# How it was run: as §1
# [24] = target: Man(a1-2)Man(a1-3)[Man(a1-6)]Man(a1-6)[Man(a1-2)Man(a1-3)]Man(b1-4)GlcNAc(b1-4)GlcNAc
# How it was run: as §1
# [25] = target: Man(a1-2)Man(a1-6)[Man(a1-3)]Man(a1-6)[Man(a1-2)Man(a1-2)Man(a1-3)]Man
# How it was run: as §1
# [26] = target: Man(a1-2)Man(a1-6)[Man(a1-3)]Man(a1-6)[Man(a1-2)Man(a1-2)Man(a1-3)]Man(b1-4)GlcNAc(b1-4)GlcNAc
# How it was run: as §1
# Man(a1-3)[Man(a1-6)]Man = target: Man(a1-3)[Man(a1-6)]Man
# How it was run: as §1
# [27] = target: Man(a1-3)[Man(a1-6)]Man(a1-6)[Man(a1-2)Man(a1-3)]Man(b1-4)GlcNAc(b1-4)GlcNAc
# How it was run: as §1
# [28] = target: Man(a1-3)[Man(a1-6)]Man(a1-6)[Man(a1-3)]Man
# How it was run: as §1
# [29] = target: Man(a1-3)[Man(a1-6)]Man(a1-6)[Man(a1-3)]Man(b1-4)GlcNAc(b1-4)GlcNAc
# How it was run: as §1
# [30] = target: Man(a1-3)[Man(a1-6)]Man(b1-4)GlcNAc(b1-4)GlcNAc
# How it was run: as §1
# [31] = target: Man(a1-3)[Man(a1-6)]Man(b1-4)GlcNAc(b1-4)[Fuc(a1-6)]GlcNAc
# How it was run: as §1
# Man(a1-6)Man = target: Man(a1-6)Man
# How it was run: as §1
# Man(b1-4)GlcNAc = target: Man(b1-4)GlcNAc
# How it was run: as §1
# MurNAc(b1-4)GlcNAc = target: MurNAc(b1-4)GlcNAc
# How it was run: as §1
binder,measurement,setting,value
B1,glycan array binding signal (z-score),[1],-0.05
same,glycan array binding signal (z-score),[2],-0.171
same,glycan array binding signal (z-score),[3],-0.167
same,glycan array binding signal (z-score),[4],-0.16
same,glycan array binding signal (z-score),[5],-0.188
same,glycan array binding signal (z-score),[6],-0.14
same,glycan array binding signal (z-score),[7],-0.185
same,glycan array binding signal (z-score),GlcNAc(b1-3)GalNAc,-0.155
same,glycan array binding signal (z-score),GlcNAc(b1-3)Man,-0.18
same,glycan array binding signal (z-score),[8],-0.18
same,glycan array binding signal (z-score),[9],-0.174
same,glycan array binding signal (z-score),[10],-0.191
same,glycan array binding signal (z-score),[11],-0.132
same,glycan array binding signal (z-score),GlcNAc(b1-4)GlcNAc,-0.197
same,glycan array binding signal (z-score),[12],-0.203
same,glycan array binding signal (z-score),[13],-0.168
same,glycan array binding signal (z-score),[14],-0.17
same,glycan array binding signal (z-score),[15],-0.196
same,glycan array binding signal (z-score),[16],-0.187
same,glycan array binding signal (z-score),GlcNAc(b1-6)GalNAc,-0.202
same,glycan array binding signal (z-score),[17],-0.199
same,glycan array binding signal (z-score),Kdn(a2-3)Gal(b1-3)GalNAc,-0.176
same,glycan array binding signal (z-score),Kdn(a2-3)Gal(b1-3)GlcNAc,-0.117
same,glycan array binding signal (z-score),Kdn(a2-3)Gal(b1-4)Glc,-0.166
same,glycan array binding signal (z-score),Kdn(a2-3)Gal(b1-4)GlcNAc,-0.189
same,glycan array binding signal (z-score),[18],-0.194
same,glycan array binding signal (z-score),Kdn(a2-6)Gal(b1-4)GlcNAc,-0.179
same,glycan array binding signal (z-score),[19],0.713
same,glycan array binding signal (z-score),[20],8.2
same,glycan array binding signal (z-score),Man(a1-2)Man(a1-3)Man,1.68
same,glycan array binding signal (z-score),[21],2.21
same,glycan array binding signal (z-score),[22],7.07
same,glycan array binding signal (z-score),[23],5.46
same,glycan array binding signal (z-score),[24],4.86
same,glycan array binding signal (z-score),[25],5.72
same,glycan array binding signal (z-score),[26],10.1
same,glycan array binding signal (z-score),Man(a1-3)[Man(a1-6)]Man,6.01
same,glycan array binding signal (z-score),[27],11.3
same,glycan array binding signal (z-score),[28],-0.185
same,glycan array binding signal (z-score),[29],5.96
same,glycan array binding signal (z-score),[30],4.6
same,glycan array binding signal (z-score),[31],1.98
same,glycan array binding signal (z-score),Man(a1-6)Man,-0.153
same,glycan array binding signal (z-score),Man(b1-4)GlcNAc,-0.198
same,glycan array binding signal (z-score),MurNAc(b1-4)GlcNAc,-0.179
